# Laboratory results as given in publication PMC7819943, “Rice protein-binding microarrays: a tool to detect cis-acting elements near promoter regions in rice”.
# Some of the results follow.
# Molecular target: T1, OsWOX13 (Oryza sativa, UniProt Q5QMM3 1-267)
# T1 sequence: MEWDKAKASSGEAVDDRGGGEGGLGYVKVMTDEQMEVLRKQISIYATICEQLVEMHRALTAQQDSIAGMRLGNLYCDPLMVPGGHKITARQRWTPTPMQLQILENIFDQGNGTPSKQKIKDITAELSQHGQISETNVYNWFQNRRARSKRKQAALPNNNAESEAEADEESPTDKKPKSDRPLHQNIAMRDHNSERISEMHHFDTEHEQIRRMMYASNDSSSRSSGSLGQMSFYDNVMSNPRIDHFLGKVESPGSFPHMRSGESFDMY
# Assay: protein-binding microarray (RPBM); PBS, 2% BSA, 51.3 ng/ul salmon testes DNA, 50 uM zinc acetate, 200 nM TF, 25 C, 1 h; high values mean tight binding
# Conditions: protein: recombinant; tags: N-terminal polyhistidine and DsRed monomer fusion (pET32a); label: CyDye5-dUTP incorporated in the synthesized complementary strand; 3' TTTTT single-stranded linker to array surface; dsDNA, one strand shown
# Procedure, shortened: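 In PBS with 2% BSA, salmon testes DNA and 50 µM zinc acetate, 200 nM protein was incubated on a custom Agilent array at 25 °C for 1 h and then washed off. The array had been made double-stranded by primer extension with Cy5-dUTP and blocked with 2% BSA. The proteins were transcription factors fused N-terminally to polyhistidine and DsRed, expressed in E. coli BL21-CodonPlus and purified on Ni–NTA. The binding signal is per-feature fluorescence intensity (arbitrary units) from an Axon 4000B scanner.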
row,Sequence,binding signal
1,ACAAATTCAAGTAATTGATCGATTGATGTTACTATTTCGTCGGAGTCACCTAGTGCAG,33900 fluorescence intensity (a.u.)
2,GTATTAATCACATTTCATTTCAACTTTTGATTCTGATATGCGGAGTCACCTAGTGCAG,5200 fluorescence intensity (a.u.)
3,CTGATGATTGCACCCCACTTGAATCAAGGGTGTGACAAAACGGAGTCACCTAGTGCAG,15300 fluorescence intensity (a.u.)
4,AATTTCAATTAAACTTTTAAATTTAACGTGAATTAAACACCGGAGTCACCTAGTGCAG,19600 fluorescence intensity (a.u.)
5,ATCAATTGCTTGCTGATTTGCCTTAGCAAGTCTTCAATTTCGGAGTCACCTAGTGCAG,12900 fluorescence intensity (a.u.)
6,CCTGATCAGTTAATTAGCCTATACGGTACCTCCAAACATTCGGAGTCACCTAGTGCAG,25900 fluorescence intensity (a.u.)
7,AGAAATTTAAAATCTTGATAGTTTACTCTTTATTGGCTCTCGGAGTCACCTAGTGCAG,3560 fluorescence intensity (a.u.)
8,ATTCATTAATCTGTACTAATTGATATTGCTAAGCAGCTGCCGGAGTCACCTAGTGCAG,34200 fluorescence intensity (a.u.)
9,ACCCAGCTAGTTTAAATTAAATGAATGATCAAAGGGCATTCGGAGTCACCTAGTGCAG,3500 fluorescence intensity (a.u.)
10,GAAGGATTGAGATATGATTGATTATTATATCATATACTCTCGGAGTCACCTAGTGCAG,55000 fluorescence intensity (a.u.)
11,GGCTGGTTATTGATGGATCCAAACCGAACACCAACGGCGGCGGAGTCACCTAGTGCAG,8030 fluorescence intensity (a.u.)
12,ACGTATAAATTATTTATCCCGTACACGCCACCTTCATCTACGGAGTCACCTAGTGCAG,15000 fluorescence intensity (a.u.)
13,ATTAAGGAATTAAATTTGAAAATATACTATTCATTTAATTCGGAGTCACCTAGTGCAG,3360 fluorescence intensity (a.u.)
14,AAATAAAAGGTAATTTATAAATAAAACTTTTATATACATGCGGAGTCACCTAGTGCAG,12100 fluorescence intensity (a.u.)
15,TTAAATTCCAATTTTACACCTCTAAAATATTTTACTACCCCGGAGTCACCTAGTGCAG,6110 fluorescence intensity (a.u.)
16,GCTTACCACTAAATTGCCTGTCATGCAACTACAATCAACCCGGAGTCACCTAGTGCAG,12500 fluorescence intensity (a.u.)
17,AGTAGTTTCAGTCAATCTAAATGTAAACAATCACATAATCCGGAGTCACCTAGTGCAG,11200 fluorescence intensity (a.u.)
18,TAGTCTTTGTTTGATTGGGCATTCTATAAATCGAGAAAATCGGAGTCACCTAGTGCAG,6780 fluorescence intensity (a.u.)
19,TATGATTTTCCACCCTTGAAGGGTATGTTCAAATTTTAGCCGGAGTCACCTAGTGCAG,6230 fluorescence intensity (a.u.)
20,TGGGCATATCTGCGGACGCAGTAAGGGCAGTTCCAACCCACGGAGTCACCTAGTGCAG,10700 fluorescence intensity (a.u.)
21,ACAAAACTTTCAAATTTAGCCGTTCTAAAATTGAAACCCTCGGAGTCACCTAGTGCAG,4400 fluorescence intensity (a.u.)

row,Sequence,binding signal
1,GATAAAATGATAAATAATTATATTAGGATTTGATAAAGTACGGAGTCACCTAGTGCAG,21800 fluorescence intensity (a.u.)
2,TGGATTTATATATCTTGATTTGTCATTAAGAATATCATGGCGGAGTCACCTAGTGCAG,7160 fluorescence intensity (a.u.)
3,CAAACTCCACTTGATTACTTCATCGTGCCGACGTCGACACCGGAGTCACCTAGTGCAG,7260 fluorescence intensity (a.u.)
4,ACTTGATTTCTACATATGGTTATCGGAGGGAACTGGACTTCGGAGTCACCTAGTGCAG,12000 fluorescence intensity (a.u.)
5,ATTAATTTGAGAGAAAACTTTGTAAGAAGGGAAAACAATACGGAGTCACCTAGTGCAG,6610 fluorescence intensity (a.u.)
6,TGATGATTAGTCGATTACTGTTTTCCTATAGCCATCGTTACGGAGTCACCTAGTGCAG,30100 fluorescence intensity (a.u.)
7,AGGCTGTTGCAATCAGAGGTAATTAATTACTTGCTCTATACGGAGTCACCTAGTGCAG,28100 fluorescence intensity (a.u.)
8,ATTAATATCCATCATGTTCCTCCAATTAGTTTTATAAAGCCGGAGTCACCTAGTGCAG,7890 fluorescence intensity (a.u.)
9,CTTCTTCTCATAATTGGTTGGTCGCTAGTTAACACTAAATCGGAGTCACCTAGTGCAG,5330 fluorescence intensity (a.u.)
10,AAAATTCATGATTGATTTTGTAGTGGATCAACCTTGCCAACGGAGTCACCTAGTGCAG,52400 fluorescence intensity (a.u.)
11,GAGATTGCTTCAAACTGAGAGCCTGAGGATTCACACCCCACGGAGTCACCTAGTGCAG,5240 fluorescence intensity (a.u.)
12,ATTTAATTTAATTTAATTGTTCCTCCTCTTCTTCTTCTCTCGGAGTCACCTAGTGCAG,41000 fluorescence intensity (a.u.)
13,GATTTAACTGATAGAACAAATATTCAACACGCATTGTGTACGGAGTCACCTAGTGCAG,22300 fluorescence intensity (a.u.)
14,CTAACAAATTGTTGGCCACACTATATTTGCCGTGCCATACCGGAGTCACCTAGTGCAG,5260 fluorescence intensity (a.u.)
15,CACTAATTTTGCCTTTGTGCCTTTTACTATTGCGCATCACCGGAGTCACCTAGTGCAG,14500 fluorescence intensity (a.u.)
16,TCCATGACAACTACACATAATTGCGGACCACATTAACTCCCGGAGTCACCTAGTGCAG,7100 fluorescence intensity (a.u.)
17,TTTATTAATTTGCGTGTGAAACTGACATGTGGGTCTCATGCGGAGTCACCTAGTGCAG,34000 fluorescence intensity (a.u.)
18,CCTCCTGCTAATTTGTCTGGTGAACAATGCCACAGGTAATCGGAGTCACCTAGTGCAG,6040 fluorescence intensity (a.u.)
19,TAGATGATTGCACTAGATTTTGCTTTGTGTACTTATTGAACGGAGTCACCTAGTGCAG,32900 fluorescence intensity (a.u.)
20,TCTCCCATCCAATTAAAGTACAGTCAAGCAAATTATGGCCCGGAGTCACCTAGTGCAG,5250 fluorescence intensity (a.u.)
21,GGTCTAGATTAATTATACTACCACAAAACAAGGATATCATCGGAGTCACCTAGTGCAG,17700 fluorescence intensity (a.u.)
